# Test results: PMC4336329 (PLoS ONE, 2015)
# The campaign covered roughly 310,000 compounds. About 14,000 (4.5%) showed an effect of 50% or more. The effect is printed as a negative number. The list shows a part of the results.
# Target: human ether-à-go-go-related gene (hERG) potassium channel (human, UniProt Q12809)
# Experiment: primary screen, population patch clamp on CHO cells stably expressing hERG
# 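Also: peak tail current of the secondary pulse compared with the same well before compound.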
# Sequence of human ether-à-go-go-related gene (hERG) potassium channel (Q12809 whole entry, looked up): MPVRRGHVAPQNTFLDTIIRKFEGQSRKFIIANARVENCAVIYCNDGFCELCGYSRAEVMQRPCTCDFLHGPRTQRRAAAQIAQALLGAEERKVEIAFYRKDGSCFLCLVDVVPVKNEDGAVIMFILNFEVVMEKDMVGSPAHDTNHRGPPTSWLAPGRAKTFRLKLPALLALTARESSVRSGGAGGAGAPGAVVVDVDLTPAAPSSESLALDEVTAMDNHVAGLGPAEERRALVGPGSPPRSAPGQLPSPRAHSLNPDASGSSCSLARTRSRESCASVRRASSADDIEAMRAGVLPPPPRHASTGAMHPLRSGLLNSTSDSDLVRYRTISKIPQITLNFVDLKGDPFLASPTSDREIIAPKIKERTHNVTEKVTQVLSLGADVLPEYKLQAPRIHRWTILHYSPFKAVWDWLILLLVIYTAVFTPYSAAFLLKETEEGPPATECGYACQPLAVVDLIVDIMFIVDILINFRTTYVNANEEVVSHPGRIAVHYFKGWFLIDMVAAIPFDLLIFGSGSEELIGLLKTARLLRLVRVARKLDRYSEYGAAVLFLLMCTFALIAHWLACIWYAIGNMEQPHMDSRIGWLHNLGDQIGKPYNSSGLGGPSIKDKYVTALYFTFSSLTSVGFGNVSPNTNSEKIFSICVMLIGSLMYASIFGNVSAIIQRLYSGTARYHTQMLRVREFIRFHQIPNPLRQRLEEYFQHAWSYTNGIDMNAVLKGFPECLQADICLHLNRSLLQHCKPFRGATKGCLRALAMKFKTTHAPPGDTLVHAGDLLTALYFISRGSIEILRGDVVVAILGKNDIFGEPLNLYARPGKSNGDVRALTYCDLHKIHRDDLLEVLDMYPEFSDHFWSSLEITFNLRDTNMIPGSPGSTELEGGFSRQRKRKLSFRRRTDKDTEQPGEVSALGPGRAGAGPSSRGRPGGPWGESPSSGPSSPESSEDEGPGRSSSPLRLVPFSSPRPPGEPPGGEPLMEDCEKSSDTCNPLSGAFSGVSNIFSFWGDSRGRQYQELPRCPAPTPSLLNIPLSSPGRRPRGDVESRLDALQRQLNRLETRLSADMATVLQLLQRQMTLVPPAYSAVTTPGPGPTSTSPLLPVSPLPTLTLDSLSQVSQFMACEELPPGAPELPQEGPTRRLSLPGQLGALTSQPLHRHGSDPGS
row,SMILES,"hERG current change (%, negative = inhibition) at 10uM"
1,COc1cc(COC(=O)c2cnc(C)cn2)c(OC)cc1Br,31%
2,O=C1OC2CCC1(c1ccccc1)C2 (stereo not shown),4.12%
3,COCCOC(=O)c1c(N)n(Cc2ccco2)c2nc3ccccc3nc12,-56.7%
4,O=C(O)C1CCN(C(=O)Cc2ccccc2)CC1,6.27%
5,COc1ccc(-c2cn(CCO)c(-c3ccc(Cl)nc3)n2)cc1,-9.71%
6,CCOc1cc(C)nc(Oc2ccc(=O)[nH]n2)n1,1.87%
7,O=c1cc(-c2ccccc2Cl)c2c([nH]1)CCC2,15.2%
8,COc1cc2c(cc1NC(=O)c1ccc(C)c([N+](=O)[O-])c1)oc1ccccc12,12.1%
9,CC1CCCC(NC(=O)COC(=O)c2cn(C)c3ccccc23)C1C (stereo not shown),7.7%
10,Cc1cc(Br)ccc1NC(=O)CN(C)C(=O)CCSc1ccc(F)cc1,0.468%
11,COc1cc(OC)cc(C(=O)N2CCN(Cc3cccc(F)c3)CC2)c1.O=C(O)C(=O)O,-31.4%
12,Cc1cccc2sc(NNC(=O)c3cc(-c4cccs4)nc4ccccc34)nc12,13.4%
13,CCCCOc1ccc(CSCCNC(=S)Nc2ccccc2)cc1,19.8%
14,COC(=O)c1cc2sccc2n1CC(=O)N1CCCc2ccccc21,-5.33%
15,CCOc1cc(/C=C(\C(=O)O)c2ccc(S(=O)(=O)N3CCCC3)s2)ccc1OC,3.4%
16,CC(C)(C)NC(=O)c1cccnc1Sc1ccccc1,18.7%
17,O=C(CN1CCCCC1)N/N=C/c1ccccc1Br,-4.47%
18,CCOc1ncccc1C(=O)Nc1cccc(Cl)c1Cl,15.8%
19,O=C(CSc1ccccc1)NCc1ccco1,7.06%
20,COCCNS(=O)(=O)c1cc(-c2nn(C)c(=O)c3ccccc23)ccc1C,-28.9%
21,NC(=O)[C@H](Cc1cc2ccccc2s1)NC(=O)[C@@H]1CC2(CC(c3cccc(NC(=O)[C@@H]4CCC(=O)N4)c3)=NO2)CN1C(=O)c1ccccc1 (stereo partly shown),-9%
22,CC1CCC/C(=N/NC(=O)c2ccccc2-n2cccc2)C1 (stereo not shown),5.95%
23,Cc1nnc(NC(=O)CCCCCN2C(=O)C3C4C=CC(C4)C3C2=O)s1 (stereo not shown),-9.98%

row,SMILES,"hERG current change (%, negative = inhibition) at 10uM"
1,Cc1ccccc1C(=O)NC1CCN(C(=O)NCc2ccccc2)CC1,2.6%
2,Cc1ccc(NC(=O)N[C@H](C(=O)O)C(C)C)c(C)c1,14.9%
3,CCn1nnc(NC(=O)c2ccc(C(C)(C)C)cc2)n1,0.506%
4,Cc1nnc(SCC(=O)NC2CCCCCC2)n1N,4.34%
5,COc1cc(CNCCCN2CCOCC2)c(Br)cc1OC(C)C.Cl,5.58%
6,COc1cccc(-n2c(SCC(=O)N3c4ccccc4CC3C)nnc2-c2ccco2)c1 (stereo not shown),-27%
7,O=C1C2CCCN2C(c2cccc(F)c2)N1c1cccc(Cl)c1 (stereo not shown),-11.4%
8,CC1CCc2c(sc(NC(=O)CCc3nc4ccccc4c(=O)[nH]3)c2C#N)C1 (stereo not shown),0.559%
9,COc1ccc(/C(N)=N/O)c(OC)c1,17%
10,CCc1cc2c(cc3c(=O)n(CC(=O)N4CCN(c5ccccn5)CC4)nc(CC)n32)s1,0.361%
11,CCNC(=S)N1CCN(CCNC2=CC(=O)CC(C)(C)C2)CC1,-12.2%
12,O=C(Nc1ccc(S(=O)(=O)N2CCOCC2)cc1)c1ccc(S(=O)(=O)N2CCOCC2)cc1,10.7%
13,Cc1cc(C(=O)COC(=O)c2ccc(O)cc2)c(C)n1CC1CCCO1 (stereo not shown),12.3%
14,Cc1c(C(=O)NCc2ccc(S(N)(=O)=O)cc2)oc2ccc(Cl)cc12,10%
15,Br.Clc1ccc2nc(CN3CCCCC3)cn2c1,-32.7%
16,CC(C)CCn1nnnc1C(c1ccccc1)N1CCC(C(N)=O)CC1 (stereo not shown),-2%
17,Nc1ccc(Nc2nc3ccccc3[nH]2)cc1,19.2%
18,N#CCc1c(C#N)c(N)nc(N2CCOCC2)c1C#N,1.34%
19,CCOc1ccc(N(Cc2cc3cc(OC)ccc3[nH]c2=O)S(C)(=O)=O)cc1,0.193%
20,O=C(CN1C(=O)c2ccc([N+](=O)[O-])cc2C1=O)NC1CCCCCC1,1.09%
21,CC(C)N1CCC(N2CCN(C3CCCCC3)CC2CCO)CC1 (stereo not shown),18.9%
22,O=C(CSc1nnc(-c2ccncc2)s1)Nc1ccccc1,3.19%
23,CSc1cccc(NC(=O)Cn2cccc2)c1,-4.81%

row,SMILES,"hERG current change (%, negative = inhibition) at 10uM"
1,O=c1cnnc(Nc2ccccc2F)[nH]1,14.1%
2,CCS(=O)(=O)N1Cc2ccccc2CC1C(=O)Nc1ccc(F)cc1 (stereo not shown),-4.02%
3,COc1ccc(N2Cc3ccccc3C2)cc1Cl,-59.9%
4,CCC(C)(C)NC(=O)CN(C(=O)CCC(=O)Nc1nccs1)c1ccc2c(c1)OCCO2,4.58%
5,Cc1ccc(C(=O)N/C(=C\c2cccc([N+](=O)[O-])c2)C(=O)OCN2C(=O)c3ccccc3C2=O)cc1,-11%
6,Cc1cccc(Nc2sc(C(=O)c3cc4cc(Cl)ccc4o3)c(N)c2C#N)c1,-2.78%
7,COc1ccc2c(c1)CC/C(=C\c1ccc(OC)c(Cn3nc(C)cc3C)c1)C2=O,-6.86%
8,CCOC(=O)c1ccc(-n2ncc(C(=O)OCC)c2N)cc1,1.11%
9,CCCCCC(=O)Nc1cccc(C2=NOC3(C2)C[C@@H](C(N)=O)N(C(=O)c2ccc(Cl)cc2)C3)c1 (stereo partly shown),-29.6%
10,O=C(Nc1cccc(F)c1)c1cc(S(=O)(=O)N2CCC(C(=O)O)CC2)ccc1F,-1.84%
11,Cc1c(NC=C(C#N)C#N)c(=O)n(-c2ccccc2)n1C,35.5%
12,O=C(NCc1ccncc1)C1CCN(S(=O)(=O)Cc2ccccc2)CC1,-10.4%
13,O=C(CSc1ccccn1)N1CCN(c2ccc(Cl)cc2)CC1,-5.36%
14,CN(C(=O)c1ccco1)c1ccccc1C(=O)O,17.8%
15,CN1C(=O)C(O)(CC(=O)/C=C/C=C/c2ccccc2)c2ccccc21 (stereo not shown),-0.539%
16,COc1ccc(/C=C2\Sc3ccc(C(=O)NC4CC4)cc3N(C)C2=O)cc1OC,-34.6%
17,Fc1ccc(C2C3=C(Nc4ncnn42)c2ccccc2OC3c2ccncc2)cc1 (stereo not shown),-60.4%
18,Cc1cc2oc(=O)cc(CSc3nnc(-c4cccs4)o3)c2cc1C(C)C,9.78%
19,Cc1cccnc1NC(=O)C1CCCN(S(=O)(=O)c2ccc3c(c2)oc(=O)n3C)C1 (stereo not shown),5.8%
20,O=C(Nc1ccc2c(c1)OCO2)c1cccc(S(=O)(=O)N2CCOCC2)c1,-8.39%
21,c1ccc(-c2nnc(-c3ccncc3)o2)cc1,-6.95%
22,NS(=O)(=O)c1ccc(CCN=Cc2ccccc2O)cc1,3.18%
23,COc1ccc(S(=O)(=O)Nc2nnc(C(C)C)s2)cc1,-9.22%

row,SMILES,"hERG current change (%, negative = inhibition) at 10uM"
1,CCOC(=O)c1c(C)[nH]c(C)c1S(=O)(=O)N(C)CC(=O)Nc1cccc(F)c1,8.39%
2,COc1ccc(S(=O)(=O)Nc2ccc(S(=O)(=O)Nc3nc(C)cc(C)n3)cc2)cc1OC,7.44%
3,CCc1nn(CC(=O)NCCCN2CCN(C)CC2)c(=O)c2cc3sc(C)cc3n12,14.8%
4,COC1OC(CO)C(O)C(O)C1O (stereo not shown),-1.61%
5,CC(C)c1ccc(NC(=O)COC(=O)COc2ccccc2)cc1,-6.4%
6,CCN(CC)C(=O)N1CCC(NC(=O)c2ccc(C(C)(C)C)cc2)CC1,-5.14%
7,CCOC(=O)CSc1nc(N)cc(=O)[nH]1,7.78%
8,O=C(COc1cccnc1[N+](=O)[O-])N1CCc2ccccc2C1,4.11%
9,CC(=O)NC(NC(=S)Nc1ccc(C)cc1C)C(Cl)(Cl)Cl (stereo not shown),6.31%
10,CCOC(=O)C1(Cc2ccc(OC)cc2)CCN(C(=O)C2=CCCC2)CC1,-33.8%
11,CCc1cccc(Nc2c3c(nc4ncnn24)CCC3)c1,-0.116%
12,CN1c2ccccc2N(C)C1(C)c1ccccc1,5.91%
13,COc1cccc(CC(=O)NC2CCSc3ccccc32)c1 (stereo not shown),8.06%
14,CC(O)(C#CCN1CCCCC1)c1ccccc1 (stereo not shown),1.9%
15,O=C(O)CCCCCNC(=O)Nc1ccc2c(c1)OCCO2,14.1%
16,Cc1ccc(S(=O)(=O)Nc2cc3c4c(c2)CCC(=O)N4CCC3)cc1,-24.9%
17,Cc1cc(C)n(-c2ccc(F)cc2)c(=O)c1C#N,28.4%
18,CC(C(=O)Nc1ccc(O)cc1C(=O)O)N1C(=O)/C(=C\c2cccs2)SC1=S (stereo not shown),19.1%
19,CCC(=O)Nc1cccc(C(=O)N(Cc2ccccc2)Cc2ccccc2)c1,-5.82%
20,COc1ccc(S(=O)(=O)N(C)CC(=O)N2CCC(C(N)=O)CC2)cc1Cl,-0.778%
21,CCN(CC)C(=O)C1CCCN(Cc2ccc(N(C)C)cc2)C1 (stereo not shown),-12.5%
22,O=C(Cc1cccs1)N(CC1CCCO1)C1(C(=O)NC2CCCC2)CCCCC1 (stereo not shown),-17.8%
